The results in this text go back to PubChem BioAssay AID1508624 (National Center for Advancing Translational Sciences (NCATS), 2021).

Hit rate of the full screen: of about 48,000 compounds, about 120 (0.25%) were called active. Roughly 4% stayed inconclusive and do not appear here. The call rests on the fitted dose curve; in most records, active means well fitted activation curve with a large enough effect; inconclusive means small, poorly fitted or top-dose-only effect, or another doubt; inactive means no such curve, though single readings can be large or run the other way. The list shows a part of the results, in another mix than the full data. Entries without a call were filed so in the source.

A short description of the experiment: Primary qHTS for Identification of Small Molecule Activators of Huntingtin-Antisense Promoter Activity. Further: nearly all actives have a fitted effect of over 55% in size. The settings on record: HEK293 HTT-AS promoter firefly luciferase reporter, 24 h; activity change, positive = activation: at 57.5 µM (top of the series), percent change from vehicle, -100% = no light. The method, boiled down:
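HEK293 cells carrying firefly luciferase reporters were seeded at 2,500 per well in Opti-MEM and cultured for 24 h. They were then treated with compounds at up to 57.5 uM final for 24 h at 37 degrees C before Dual-Glo luminescence readout.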
For orientation: In qHTS, concentration-response curves come from the screen itself.
Regarding `O=C(Nc1ccccc1C(F)(F)F)c1noc2c1CCCCC2`, the activity change, positive = activation was 1.26%.
The same measure for `CC(=O)c1c(C)oc2ccc(NS(=O)(=O)c3ccc(C(C)C)cc3)cc12`: -33%; for `COc1cccc(-c2cc(C(=O)Nc3ccc4c(c3)OCO4)no2)c1`: 12.9%.
Take `CN(C)S(=O)(=O)N1CCC(n2cnc3cccnc32)CC1`: the activity change, positive = activation is 3.86%.
Consider `COC(=O)Cc1c(C)c2cc3c(c(C)c2oc1=O)OCN(CCc1ccc(F)cc1)C3`, for which the activity change, positive = activation was -21.9%.
The same measure for `O=C(COc1ccc2oc3c(c2c1)CCCC3)Nc1ccc(Cl)cc1`: inactive: -28.1%; for `COc1ccc(C)cc1S(=O)(=O)Nc1cccc(-c2ccc(N3CCC(C)CC3)nn2)c1`: 24.9%; for `CCCCOc1ccc(S(=O)(=O)Nc2ccc(-c3ccc(N4CCCCC4)nn3)cc2)cc1`: 1.26%.
Under `Cc1cc(C)cc(NC(c2cccc(Cl)c2)c2nnc(-c3ccccc3)o2)c1` (stereo unspecified) stands -15%.
Under `Cc1cc(C)c(S(=O)(=O)Nc2ccc(-c3ccc(N4CCCCC4)nn3)cc2)c(C)c1` stands 32.3%.
For `CC(C)(O)CC(=O)NCCn1ccc2ncnc(Nc3ccc(Oc4cccc(C(F)(F)F)c4)c(Cl)c3)c21`, the “activity change, positive = activation” value is inactive: -9.03%.
Under `COc1ccc(C2C(=O)N(C3CCC(C)CC3)CC(=O)N2C2CCCCC2)cc1OC` (stereo unspecified) stands -4.14%; under `COC(=O)c1cc2oc3ccccc3c2n1CC(=O)Nc1ccc(OC)c(OC)c1`, 2.47%; under `CCOc1ccc(C2C(=O)N(C3CCCCCC3)CC(=O)N2CCC2=CCCCC2)cc1OC` (stereo unspecified), -27.6%.
Under `Cc1ccccc1OCCCn1c(-c2ccc(Cl)cc2)nc2ccccc2c1=O` stands -9.3%; under `COc1ccc(OC)c(NC(=O)CCc2c(C)nn(-c3ccc(N4CCCC4)nn3)c2C)c1`, 3.82%; under `COc1ccc(CNC(=O)c2cc(-c3cccc(Cl)c3)on2)cc1`, 9.66%.
`COc1ccc(C2Nc3ccccc3-n3c(-c4ccccc4)c4c(=O)n(C)c(=O)n(C)c4c32)cc1` (stereo unspecified): the activity change, positive = activation was -13%.
As for `Cc1ccc(-n2nc3c(N4CCC(C(=O)NCCc5ccccc5)CC4)nnc(C)c3c2C)cc1`, the “activity change, positive = activation” value was inactive: -45.6%.
Under `Cc1coc2cc3oc(=O)c(CCC(=O)N4CCCCC4)c(C)c3cc12` stands 37.2%; under `COC(=O)CN1C(=O)CSc2ccc(S(=O)(=O)Nc3ccccc3)cc21`, -1.78%; under `Cc1c2cnn(-c3ccccc3)c(=O)c2c(C)n1C(C)C(=O)NCc1cccc(Br)c1` (stereo unspecified), inactive: -39.8%.
For `O=C1CCSc2ccc(S(=O)(=O)Nc3cccc(C(F)(F)F)c3)cc2N1`, the “activity change, positive = activation” value is inactive: -34.4%.
Under `CC(NC(=O)CSc1nc(-c2ccccc2F)nc2cc(=O)[nH]n12)c1nc2ccccc2n1C` (stereo unspecified) stands -0.672%; under `Cc1ccc(C)c(NS(=O)(=O)c2ccc3oc(=O)c4ncn(C)c4c3c2)c1`, -1.34%; under `Cc1cc(C)cc(NC(=O)c2cccc(C(=O)Nc3cc(C)cc(C)c3)c2)c1`, -10.6%.
